Results on 22 molecules are retold here after PMC12136788.

Changes are numbered by the printed parent chain. This is one part of the list.

T1: UNK ZnF1-3 (human, UniProt Q9C0B0 31-174)
T1 sequence: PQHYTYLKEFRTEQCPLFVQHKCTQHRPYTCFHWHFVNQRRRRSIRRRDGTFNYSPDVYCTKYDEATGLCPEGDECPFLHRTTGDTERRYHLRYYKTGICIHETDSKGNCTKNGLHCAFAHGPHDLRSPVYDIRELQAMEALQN

B1: chr3:10015032:10015033:+_ENSMUSG00000027533_ENSMUST00000029046|mus_mus|mus_mus_mus_hu_True|1_48 (ssRNA)
RNA: GGGAGUUCUACAGUCCGACGAUCGUUUUUACCAUCACAAGUGAUGAUACAAUCUGGCUUGGCCAUUGCGCCCAUUUUUCGCAAAGCCAGUCCUACUCCUAGCUCCUUCAUGUAUUCAUCAAAGCCUUUGCUGUCCAUCAGGCGCAACAGAGGAUUGAGCAUCA
B2: chr2:224824363:224824364:+_ENSG00000135900_ENST00000258383|hu_hu|FALSE|FALSE (ssRNA)
RNA: GGGAGUUCUACAGUCCGACGAUCAGCUUCUUUCUCUAUCCCAAGUUGUUGGCGUUUGGCCUCCUCACUUUUAAUAUAGCAGCUAUUAACAAAUGCAGUUUUGAGAAGAUCUAAGGAAAAGUUUUCCUGUAACCGAUGUCCAAACAACAGAGGAUUGAGCAUCA
B3: 97010558_97014216_1642_CDS_ENSG00000090060_ENST00000216277|human|control|control (ssRNA)
RNA: GGGAGUUCUACAGUCCGACGAUCAUGGAGUUGCUUUCUUUUUACAUGCAUUGCAGCAAUUUUCAUAUCCACCUCAAACAUCUUGCUGUUUAUUGCUUGCCUAUAAACUGUAUCUGUGAAAGACUGAAUAUCAUAGGUGAGAUCCAACAGAGGAUUGAGCAUCA
B4: chr1:109605286:109605287:-_ENSG00000197780_ENST00000461096|hu_mus|hu_hu_hu_mus_True|38_78 (ssRNA)
RNA: GGGAGUUCUACAGUCCGACGAUCAAGUUUCAGAGUAACAUUCAGUAACCUCUUUAACAAUUGUAAUCCUUAUUAUAAGCUAAGCAGAAUAAUAAUUUAAUACAUAGAGUGAACUACACACAAAGCCUGAACCGCGAAAAUGGUCAACAGAGGAUUGAGCAUCA
B5: chrX:70775091:70775092:+_ENSG00000147162_ENST00000373719|hu_hu|motif|central (ssRNA)
RNA: GGGAGUUCUACAGUCCGACGAUCAUCAGGGAAAUGUGGUUGUAGUUCGAUAGCCCGCCUGUAGGUGUCUAUUGCCAGAUCGGUCAGGCCUUGCUCAUAGUAUACACAAGCCAGGUUGCCGUGCACCACUGCGUGAUUUGGACUCAACAGAGGAUUGAGCAUCA
B6: chrX:43605437:43605438:+_ENSG00000189221_ENST00000338702|hu_hu|motif|central (ssRNA)
RNA: GGGAGUUCUACAGUCCGACGAUCAAGAAGUUUAAAUCAGCAUUUCCCAAAAGGUGUGUCAGGACUGAGUUAAUCAGUAAGCGGAUAGAAACAACUGCAAUAGACUAGGGAUGAGAUUUCUCAAAGCAGUCUGAUAUAAUAUGCCAACAGAGGAUUGAGCAUCA
B7: chr9:3385818:3385819:+_ENSMUSG00000025899_ENSMUST00000053407|mus_mus|motif|central (ssRNA)
RNA: GGGAGUUCUACAGUCCGACGAUCCCUACAAAAGUUGGAGUUAUAAAAAGAUUUUAACACAAAAGUUUAUCUUCAAAUGCGGUAUAUAUACAAACAUCACAGACUUUUCACAAGUUAAUGUCAAACACCAUACUUAAAAGGCAUCAACAGAGGAUUGAGCAUCA
B8: chr11:93987321:93987322:+_ENSMUSG00000020859_ENSMUST00000103168|mus_hu|FALSE|FALSE (ssRNA)
RNA: GGGAGUUCUACAGUCCGACGAUCUACAAAGUUACAUUCUGAACCCCAGGGAUUCCAUAAUAGAAAUAAAUACUGAAAUAACUACAUUGCUAAAUGAGCUCUUUGCUCAUAGAAAUGAAGCUCAGCCUCUAAGAGACAGCAAGUCAACAGAGGAUUGAGCAUCA
B9: chr11:126104937:126104938:+_ENSG00000197798_ENST00000360194|hu_hu|FALSE|FALSE (ssRNA)
RNA: GGGAGUUCUACAGUCCGACGAUCCUUCCUGGGCUUUUUGGUGGGAGGUUCGCCAUCGUUGAAGAAUCCAAAAAUCUCGUCUAUAUCAGAGGCCUGGCUCCCUGUAGAAGCCAUCCAGUUUCGAGUCUCCUCCAAACGCCACUGCAACAGAGGAUUGAGCAUCA
B10: chr5:32403282:32403283:-_ENSG00000056097_ENST00000265069|hu_mus|motif|central (ssRNA)
RNA: GGGAGUUCUACAGUCCGACGAUCAGAUGUUUUCUUGGCAGCCAUAUUGGUAGGUAUCGCUGACACUUUAGUGUUGGAUGUACGGUUAAGAGACGAGUUUCCUGUAGUUGAAAGACCUUUCACUGAAGAAGUUGCAAUUGAUGACAACAGAGGAUUGAGCAUCA
B11: chr1:163117127:163117128:-_ENSG00000143248_ENST00000313961|hu_mus|hu_hu_hu_mus_False|78_98 (ssRNA)
RNA: GGGAGUUCUACAGUCCGACGAUCUGCUACAAAGGAUGGAGGAAAUAUCACAGGGCAUGAUUUCAUAGCCUGACCAGAUGACUACUUGAUUAGCUCCUUAUAAAAUUCAGAGCGCACAAAGCGGGGCAGAGAAUCCUUCUCCAUCAACAGAGGAUUGAGCAUCA
B12: chr4:76721835:76721836:+_ENSG00000138768_ENST00000264904|hu_mus|hu_hu_hu_mus_True|28_58 (ssRNA)
RNA: GGGAGUUCUACAGUCCGACGAUCGUUUGGCUGGGGUUUCUGAGACGCUCUGGAAUAUAACUCAUGUUUGCUAAUAAUCCUAGUUUCCUCUAUGAAAUUCUCUUUGCAAUCCUCUUCCUCUAUUAGUUGCUUUAGUUUCUCUUUCAACAGAGGAUUGAGCAUCA
B13: 118650776_118652258_1406_CDS_ENSMUSG00000020114_ENSMUST00000020315|mouse|control|control (ssRNA)
RNA: GGGAGUUCUACAGUCCGACGAUCCUUGUAGAACUCCGGGAGCAUCUCAUGCCGUGUGCUAACUACAGCGUCCAGGCACUUAGCAGCCGCGCGUCUCACUUUCCAACUCAUGUCGUCAUCGUCACUAUAUUCAUCGUCACUCCCCAACAGAGGAUUGAGCAUCA
B14: chr7:141450121:141450122:+_ENSG00000106028_ENST00000265304|hu_mus|hu_hu_hu_mus_True|88_98 (ssRNA)
RNA: GGGAGUUCUACAGUCCGACGAUCUCAUCCGUUCUAUUCCUUCUCUUUCGUCUGGUCACUCAGAAAUAUAAUGUUAUCAGCUAUGAUUGUUGUUGCUUGCCGCCUCACAUUGUUUUUAUCCAUGUACUCGCCAUAGUCCACUUUCAACAGAGGAUUGAGCAUCA
B15: chr6:72385097:72385098:-_ENSMUSG00000053907_ENSMUST00000059472|mus_hu|FALSE|FALSE (ssRNA)
RNA: GGGAGUUCUACAGUCCGACGAUCCUGAGAGGUACCAUAAUGGAAAAUGGAGAUAGAUAAUGGAUGAGAAACUCCAAUAGCAUAAGAGACCUGAACAAGAACCCUCCGGCACAGACCUCCUUUAACAAGGGAUUUUGCCACCCACAACAGAGGAUUGAGCAUCA
B16: 245027393_245027513_320_CDS_ENSG00000153187_ENST00000283179|human|control|control (ssRNA)
RNA: GGGAGUUCUACAGUCCGACGAUCUGCUCCCGAGCGCCCAGCGGAAUCCCCGCCCAGGUCUAGGCUGCCGUUCCCGGGCUCCAUGGCGGGGCGGCCCCCGGCCUCCUCGUCGUCCAGCGCAGCCUGGAGUCGCUCCAUGAGCUCCAACAGAGGAUUGAGCAUCA
B17: chr4:41258970:41258971:+_ENSG00000154277_ENST00000284440|hu_hu|motif|central (ssRNA)
RNA: GGGAGUUCUACAGUCCGACGAUCUGAGCUGCAUCUUCGCGGAGCGCCCGGCAGAAAUAGCCUAGGGAAGACGAAAAACAGCGGGCGGAGCCGCCCAGGCUGCAGCUAUAAAGCGCCGGCCAGACGCACUGUGAGGCCUGUGCACAACAGAGGAUUGAGCAUCA
B18: chr10:70718461:70718462:-_ENSMUSG00000019927_ENSMUST00000020085|mus_hu|FALSE|FALSE (ssRNA)
RNA: GGGAGUUCUACAGUCCGACGAUCGUAAAAAUCAAAUGGUUUCAUGGUACAAUGAAACAGUAAACAGUGCUCAAUUUACUGCUAAUGUUGAAAAAAACCUAGAUUUUACAGUACUCUGGUAUAUAUGAAAAUGUUUUUGAUUUUCAACAGAGGAUUGAGCAUCA
B19: 164711283_164711507_869_3pUTR_ENSMUSG00000039849_ENSMUST00000041643|mouse|control|control (ssRNA)
RNA: GGGAGUUCUACAGUCCGACGAUCCGAGCGGAGCAACUCAACAUCAGGGUGUGGAGGCAGGACCUCUGAAGGACCCCUGUGCUUGAUGACAGCAUUGGUCUGGAUGUCCAGGUCCCAGUACACCUCAGUGGGUCGGAGGAGAGCCAACAGAGGAUUGAGCAUCA
B20: chr3:10015032:10015033:+_ENSMUSG00000027533_ENSMUST00000029046|mus_mus|mus_mus_mus_hu_True|8_78 (ssRNA)
RNA: B1 RNA with U66G, C87U, G89U, U93C, U128G, G132U, U137C
B21: 90399841_90400490_10826_CDS_ENSG00000112159_ENST00000369393|human|control|control (ssRNA)
RNA: GGGAGUUCUACAGUCCGACGAUCCACCAAAAUAUCUGCAAAGUCCUUUUCAUGCAGGGGGAACUGUUUUCUGAACUCCCGUUCUUCCUCCUCCUCUUCACUCAGGGCUGUCCUAGAGUUCCUGCUCCUGUAUCUAUACAGGCCCAACAGAGGAUUGAGCAUCA
B22: 24788528_24788648_645_CDS_ENSG00000090905_ENST00000315183|human|control|control (ssRNA)
RNA: GGGAGUUCUACAGUCCGACGAUCGUUAUUUUGUGGCUGUUGAUUUGUUAAAGCACUGCUUUCUGACUGGCUGUUUAACACCUUAACAGCAGAUCCAAGGUUUGCUGCUAUAACAGGAAAAUGCUGACCCCUCUUUAGAAGCUGCAACAGAGGAUUGAGCAUCA

The assay has as its target T1, UNK ZnF1-3. In words: nsRBNS (natural sequence RNA bind-n-seq); RBNS binding buffer (assumed for nsRBNS): 25 mM Tris pH 7.5, 150 mM KCl, 3 mM MgCl2, 0.01% Triton X-100, 500 ug/ml BSA, 20 U/ml SUPERase-In, 4 C; UNK is unkempt and MSI1 is Musashi-1; names of the RNAs are library labels; protein concentration not given here; high values mean tight binding.
B1 gave a binding signal of 0.665 enrichment R. The molecule B2 registered a binding signal of 0.985 enrichment R. For B3, the binding signal stood at 0.647 enrichment R. Molecule B4 showed a binding signal of 0.85 enrichment R.

In turn, B5 returned a binding signal of 0.641 enrichment R. B6 came in with a binding signal of 1.84 enrichment R. For B7, the binding signal worked out at 0.797 enrichment R.

The molecule B8 returned a binding signal of 1.24 enrichment R. Consider B9, for which the binding signal came out at 0.96 enrichment R. B10 gave a binding signal of 0.931 enrichment R. As to B11, the binding signal was determined as 1.46 enrichment R. For the molecule B12, the binding signal was 0.439 enrichment R. The molecule B13 came in with a binding signal of 0.923 enrichment R. The figure for B14 is 0.453 enrichment R; for B15 it is 1.47 enrichment R; for B16 it is 0.675 enrichment R.

For the molecule B17, the binding signal worked out at 0.721 enrichment R. As to B18, the binding signal was 0.454 enrichment R. On to B19, for which the binding signal turned out to be 1.34 enrichment R. Turning to B20, the binding signal stood at 0.734 enrichment R. As for B21, the binding signal was found to be 0.841 enrichment R. The molecule B22 registered a binding signal of 0.664 enrichment R.
